Measurements from the supplement of paper PMC7826260.
The other results are listed elsewhere or left out. Viral Rep nickase domains cut single-stranded DNA in vitro (1 h at 37 °C, 3 µM enzyme); the outer parts of the 90-letter strands are left off. Values are log2 of uncut reads against the no-enzyme pool; strong cutting gives strongly negative numbers. There is no active / inactive call. Shares of all reads are compared; uncut strands gain when others are lost, and binding without cutting may add a little.

Columns and labels:
Experiment in all cases: uncleaved DNA left, log2 of reads against the no-enzyme library (log2 ratio); higher = less cleavage (more negative = more Rep cleavage of the k-mer); sequences stand for … in CTCGTCCG…ACCGGAGA
[1] = tested on: T1, Rep nickase domain of Muscovy duck circovirus
T1 sequence (residues 1-111 of Rep, tag left off): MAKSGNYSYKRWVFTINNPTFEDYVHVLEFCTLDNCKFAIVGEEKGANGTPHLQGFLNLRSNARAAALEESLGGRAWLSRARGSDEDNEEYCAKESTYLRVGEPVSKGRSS
Method: (§1)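 A pool of 90-nt single-stranded DNAs with seven random bases just before the constant AC of the nick site (name = the seven bases) was cut by 3 µM recombinant His6-SUMO-tagged Rep nickase domain (300 nM DNA, 50 mM HEPES pH 8.0, 50 mM NaCl, 1 mM MnCl2, 1 h, 37 °C, three replicates). Uncut DNA was amplified and sequenced.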

[2] = tested on: T2, Rep nickase domain of banana bunchy top virus
T2 sequence (residues 1-94 of Rep, tag left off): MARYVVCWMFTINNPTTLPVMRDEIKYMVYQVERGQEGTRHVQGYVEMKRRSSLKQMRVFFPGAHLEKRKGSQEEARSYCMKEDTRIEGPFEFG
Method: as §1

[3] = tested on: T3, Rep nickase domain of cabbage leaf curl virus
T3 sequence (residues 1-116 of Rep, tag left off): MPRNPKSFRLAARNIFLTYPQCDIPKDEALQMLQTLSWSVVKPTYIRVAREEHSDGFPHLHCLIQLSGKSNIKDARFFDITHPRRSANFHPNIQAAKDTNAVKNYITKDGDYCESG
Method: as §1

[4] = tested on: T4, Rep nickase domain of chickpea chlorotic dwarf virus
T4 sequence (residues 1-124 of Rep, tag left off): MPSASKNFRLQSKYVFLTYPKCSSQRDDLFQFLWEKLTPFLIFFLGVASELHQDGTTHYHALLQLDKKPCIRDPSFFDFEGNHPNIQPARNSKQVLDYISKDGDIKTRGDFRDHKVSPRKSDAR
Method: as §1

[5] = tested on: T5, Rep nickase domain of faba bean necrotic yellows virus
T5 sequence (residues 1-98 of Rep, tag left off): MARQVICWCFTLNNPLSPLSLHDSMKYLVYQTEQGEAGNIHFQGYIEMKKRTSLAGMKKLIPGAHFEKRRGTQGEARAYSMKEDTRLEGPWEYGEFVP
Method: as §1

[6] = tested on: T6, Rep nickase domain of maize striate mosaic virus
T6 sequence (residues 1-117 of Rep, tag left off): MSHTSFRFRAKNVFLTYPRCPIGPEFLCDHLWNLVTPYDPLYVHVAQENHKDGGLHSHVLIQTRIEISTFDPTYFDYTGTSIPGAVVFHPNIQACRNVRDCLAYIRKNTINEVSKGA
Method: as §1

[7] = tested on: T7, Rep nickase domain of porcine circovirus 2
T7 sequence (residues 2-116 of Rep, tag left off): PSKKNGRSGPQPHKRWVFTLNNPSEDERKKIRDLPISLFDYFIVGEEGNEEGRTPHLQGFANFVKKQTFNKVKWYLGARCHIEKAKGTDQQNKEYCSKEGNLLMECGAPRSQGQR
Method: as §1

[8] = tested on: T8, Rep nickase domain of tomato golden mosaic virus
T8 sequence (residues 1-124 of Rep, tag left off): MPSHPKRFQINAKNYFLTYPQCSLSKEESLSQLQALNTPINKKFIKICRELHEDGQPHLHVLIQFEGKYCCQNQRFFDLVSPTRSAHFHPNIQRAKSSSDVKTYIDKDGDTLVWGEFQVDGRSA
Method: as §1

[9] = tested on: T9, Rep nickase domain of tomato yellow leaf curl virus
T9 sequence (residues 1-136 of Rep, tag left off): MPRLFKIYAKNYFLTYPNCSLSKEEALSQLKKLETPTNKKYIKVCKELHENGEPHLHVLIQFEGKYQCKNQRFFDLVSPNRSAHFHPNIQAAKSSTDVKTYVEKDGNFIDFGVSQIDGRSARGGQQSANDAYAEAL
Method: as §1

[10] = tested on: T10, Rep nickase domain of wheat dwarf virus
T10 sequence (residues 1-137 of Rep, tag left off): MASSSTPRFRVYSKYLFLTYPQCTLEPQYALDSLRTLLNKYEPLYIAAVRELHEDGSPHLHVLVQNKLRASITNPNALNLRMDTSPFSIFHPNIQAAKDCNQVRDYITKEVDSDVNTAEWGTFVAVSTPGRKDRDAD
Method: as §1

Sequence | uncleaved DNA left (log2) [1] | uncleaved DNA left (log2) [2] | uncleaved DNA left (log2) [3] | uncleaved DNA left (log2) [4] | uncleaved DNA left (log2) [5] | uncleaved DNA left (log2) [6] | uncleaved DNA left (log2) [7] | uncleaved DNA left (log2) [8] | uncleaved DNA left (log2) [9] | uncleaved DNA left (log2) [10]
TCAGGCC | -0.0723 | -0.00536 | 0.111 | 0.451 | -0.0657 | 0.118 | -0.0763 | 0.0286 | -0.11 | 0.0114
AGAATTG | 0.0409 | -0.00781 | -0.181 | 0.0438 | -0.131 | -0.213 | 0.0657 | -0.0163 | -0.0478 | -0.0126
CGTTGGG | -0.0927 | -0.167 | -0.654 | -0.396 | -0.021 | -0.766 | 0.0206 | -0.123 | 0.0619 | -0.152
TATTATT | -3.89 | -3.85 | -3.86 | -4.07 | -3.75 | -2.8 | -4.18 | -3.64 | -0.0317 | -4.07
GCAGAAT | -0.0169 | 0.0764 | 0.147 | 0.457 | -0.055 | 0.586 | 0.027 | 0.11 | 0.038 | 0.0245
CCACTCA | 0.000386 | 0.0436 | 0.00143 | -1.36 | -0.0315 | -0.761 | 0.0144 | -0.123 | 0.0326 | 0.0204
ATTCTGG | 0.162 | 0.0988 | 0.0468 | 0.231 | 0.0199 | -0.46 | 0.205 | 0.16 | -0.0697 | 0.116
AAGCCTA | 0.0756 | -0.0346 | -0.0262 | -1.56 | 0.00636 | 0.124 | -0.43 | 0.0271 | -0.0705 | -0.029
TCCATAA | 0.0833 | 0.11 | -0.0923 | -0.279 | -0.00813 | -0.606 | -0.0164 | 0.129 | -0.0235 | -0.105
CCCTTAA | -0.161 | -0.112 | -0.0436 | -0.431 | 0.145 | -0.817 | 0.0448 | 0.0448 | -0.0671 | -0.031
TTTCGTG | -0.0849 | -0.0539 | -0.623 | -0.851 | -0.0114 | -1.12 | 0.16 | -0.0826 | -0.0561 | -0.11
ATGGTCC | -0.00406 | 0.0898 | 0.168 | 0.0168 | -0.0592 | 0.236 | -0.0666 | 0.0398 | 0.0469 | -0.0193
CATCTTA | -0.122 | 0.031 | -0.23 | -2.05 | -0.0554 | -0.627 | -0.165 | -0.0186 | 0.0132 | -0.0821
TTTCGGG | 0.0767 | 0.0943 | 0.294 | 0.295 | 0.165 | 0.0566 | 0.291 | 0.178 | 0.107 | 0.119
ACGACCA | -0.0786 | -0.0213 | -0.0379 | -0.112 | -0.0228 | 0.134 | 0.00887 | -0.0452 | -0.161 | 0.00459
GAGAGAT | -0.0464 | 0.0754 | 0.516 | 1.74 | 0.0645 | 2.01 | -0.566 | 0.103 | 0.0342 | 0.0926
CGCATCC | 0.0054 | 0.0189 | 0.0203 | -0.139 | 0.0129 | -0.439 | 0.0648 | -0.0155 | 0.0368 | -0.104
CACTTTT | -3.7 | -3.25 | -1.86 | -2.82 | -0.512 | -1.08 | -3.58 | -0.563 | -0.0428 | -0.277
CAGCAAT | 0.058 | 0.0841 | 0.0962 | -0.445 | 0.0716 | 0.027 | -2.87 | 0.153 | -0.00292 | 0.133
TTTTCGT | -0.162 | -0.15 | -0.334 | -1.02 | -0.131 | -1.25 | -0.296 | -0.139 | -0.125 | -0.123
CGACCCG | -0.0607 | 0.0139 | -0.39 | -0.417 | -0.0203 | -0.76 | -0.0254 | -0.0951 | -0.0235 | -0.0154
TTCGAAG | -0.0657 | -0.224 | -0.849 | -0.752 | -0.0972 | -1.27 | -0.0527 | -0.18 | -0.0258 | -0.264
ATGGACT | 0.122 | 0.0975 | 0.2 | 1.38 | 0.0186 | 1.81 | 0.124 | 0.0238 | 0.0432 | 0.138
CCAATCG | -0.0467 | 0.00356 | -0.812 | -0.0213 | -0.0368 | -1.14 | 0.048 | -0.0604 | -0.147 | -0.0881
CTGAATT | -0.184 | -0.389 | -0.276 | -2.33 | -0.26 | -0.557 | -1.46 | -0.287 | -0.093 | -0.131
GGGCTTG | 0.113 | -0.0448 | 0.736 | 1.64 | -0.0497 | 2.1 | 0.0871 | 0.0823 | -0.00317 | 0.13
GGGAATC | 0.00766 | 0.0548 | 0.86 | 1.98 | 0.0815 | 2.26 | 0.176 | -0.0326 | 0.0265 | 0.217
ACGAGCG | -0.222 | -0.0143 | -0.878 | -0.396 | -0.119 | -1.09 | -0.0375 | -0.129 | -0.0588 | -0.104
GAAGTAG | 0.1 | -0.000363 | -0.42 | -0.433 | 0.154 | -0.835 | 0.146 | 0.0947 | 0.107 | -0.0312
TGGAGAC | 0.0669 | 0.0655 | 0.804 | 1.75 | -0.00392 | 1.91 | 0.172 | 0.0634 | 0.0629 | 0.0555
